# Test results taken from PMC4336329 (PLoS ONE, 2015).
# The campaign covered roughly 310,000 compounds. About 14,000 (4.5%) showed an effect of 50% or more. The effect is printed as a negative number. This is one part of the list.
# Biological target: human ether-à-go-go-related gene (hERG) potassium channel (human, UniProt Q12809)
# Test: primary screen, population patch clamp on CHO cells stably expressing hERG
# 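Also: peak tail current of the secondary pulse compared with the same well before compound.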
# Chain of human ether-à-go-go-related gene (hERG) potassium channel (Q12809 whole entry, looked up): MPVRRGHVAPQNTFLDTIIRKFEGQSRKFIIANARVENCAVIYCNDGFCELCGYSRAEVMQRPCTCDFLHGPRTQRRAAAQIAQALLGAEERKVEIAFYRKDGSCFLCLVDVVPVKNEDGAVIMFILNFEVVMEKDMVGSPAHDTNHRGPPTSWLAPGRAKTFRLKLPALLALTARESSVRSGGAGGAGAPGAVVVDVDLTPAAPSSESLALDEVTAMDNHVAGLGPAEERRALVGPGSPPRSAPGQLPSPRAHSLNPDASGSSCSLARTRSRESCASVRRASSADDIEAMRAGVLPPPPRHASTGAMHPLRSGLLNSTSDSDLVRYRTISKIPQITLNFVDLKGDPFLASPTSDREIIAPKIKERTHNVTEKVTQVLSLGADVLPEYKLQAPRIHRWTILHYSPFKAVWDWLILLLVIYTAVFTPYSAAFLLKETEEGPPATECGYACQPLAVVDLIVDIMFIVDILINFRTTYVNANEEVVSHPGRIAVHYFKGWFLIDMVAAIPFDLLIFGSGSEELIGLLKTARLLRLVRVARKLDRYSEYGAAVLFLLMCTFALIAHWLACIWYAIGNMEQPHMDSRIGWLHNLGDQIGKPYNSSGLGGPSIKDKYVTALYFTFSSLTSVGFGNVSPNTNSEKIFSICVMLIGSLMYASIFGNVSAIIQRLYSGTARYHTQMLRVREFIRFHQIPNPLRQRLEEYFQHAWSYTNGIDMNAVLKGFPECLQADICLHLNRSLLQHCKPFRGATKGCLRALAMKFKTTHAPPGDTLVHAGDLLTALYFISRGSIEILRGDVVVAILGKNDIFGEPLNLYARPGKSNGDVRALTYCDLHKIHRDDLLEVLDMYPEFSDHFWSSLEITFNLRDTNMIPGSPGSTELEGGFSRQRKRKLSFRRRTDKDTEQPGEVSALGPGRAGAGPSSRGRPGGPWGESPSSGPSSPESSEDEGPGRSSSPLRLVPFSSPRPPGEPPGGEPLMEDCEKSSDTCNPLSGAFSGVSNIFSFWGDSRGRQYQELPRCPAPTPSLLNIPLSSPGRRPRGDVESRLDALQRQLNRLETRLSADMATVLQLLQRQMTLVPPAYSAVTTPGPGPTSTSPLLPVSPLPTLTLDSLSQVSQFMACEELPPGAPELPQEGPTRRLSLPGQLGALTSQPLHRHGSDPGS
row,SMILES,"hERG current change (%, negative = inhibition) at 10uM [%]"
1,O=C(Nc1nc(-c2ccc(S(=O)(=O)N3CCCC3)cc2)cs1)C1COc2ccccc2O1 (stereo not drawn),13.1
2,CCCCC(CC)CNC(=O)C(Cc1ccccc1)NS(=O)(=O)c1ccc2c(c1)CCC(=O)N2 (stereo not drawn),3.41
3,CCCNS(=O)(=O)c1cc(CN2C(=O)c3cccnc3C2=O)ccc1OC,16.4
4,Cc1cc(C)c(C#N)c(SCc2ccccc2[N+](=O)[O-])n1,4.43
5,O=C(CSc1cccc[n+]1[O-])Nc1ccccc1Oc1ccccc1,5.43
6,COc1cc(NC(=O)c2cc(-c3ccc(C)cc3)on2)cc(OC)c1OC,18.8
7,C/C(=N/NC(=O)CCC(=O)Nc1cccc(Cl)c1)c1ccc(C)cc1,18.7
8,Br.CCC(=O)Nc1nc(C)c(-c2csc(Nc3cccc(O)c3)n2)s1,-27.5
9,O=C(CSC(=S)N1CCCCC1)c1ccccc1,16.1
10,O=C(NCCN1CCOCC1)c1cccc(S(=O)(=O)Nc2ccc(F)cc2)c1,-5.27
11,CC(=O)Nc1ccc(NC(=O)Cc2sc(C)nc2-c2ccc(C)cc2)cc1,-6.85
12,CCOCCCNC(=O)CCc1nnc2n(CCC(C)C)c(=O)c3ccccc3n12,-22.5
13,CCCC1(C(=O)O)NC(c2ccc(OC)cc2O)C2C(=O)N(c3ccc(OC)cc3)C(=O)C21 (stereo not drawn),22.1
14,Cc1ccc(-c2cc(C(=O)N3CC(C)OC(C)C3)c3ccccc3n2)o1 (stereo not drawn),5.89
15,CCC(C(=O)OCC(=O)Nc1c(Cl)cc(Cl)cc1Cl)c1ccccc1 (stereo not drawn),13.9
16,Cc1ccc(C)c(OCCC(=O)OCC(=O)N2c3ccccc3NC(=O)C2(C)C)c1,-6.54
17,CCC1CCCCN1CCCNC(=O)CS(=O)(=O)Cc1nc(-c2cccc(OC)c2)oc1C (stereo not drawn),-29.4
18,COc1cc(OC)cc(C(=O)Nc2ccccc2N2CCOCC2)c1,-47.6
19,COc1ccccc1NC(=O)c1cc(S(=O)(=O)N2CCc3ccccc32)ccc1F,15.2
20,CCOC(=O)/C(N=Nc1ccc(F)cc1)=C(/O)c1ccc([N+](=O)[O-])cc1,9.15
21,Cc1noc(C)c1CSc1nc2ccccc2c(=O)n1-c1ccc(F)cc1F,-8.94
22,CCN(CC(=O)Nc1ccc(NC(C)=O)cc1)C(=O)c1cccc(S(=O)(=O)N2CCCC2)c1,0.775

row,SMILES,"hERG current change (%, negative = inhibition) at 10uM [%]"
1,O=C(Nc1ccc(Oc2cccc(C(F)(F)F)c2)nc1)c1cccs1,6.11
2,C=CCNc1nc(Nc2ccc(-c3nc4ccccc4o3)cc2)nc(N2CCOCC2)n1,4.46
3,NC(=O)CC(NC(=O)Cc1cccc2ccccc12)c1ccc(NCc2ccccc2)c([N+](=O)[O-])c1 (stereo not drawn),5.89
4,CC1=C(C(=O)N(C)C)C(c2ccc(N3CCOCC3)cc2)NC(=O)N1 (stereo not drawn),21.1
5,CCCCc1ccc(N=N/C(C(=O)Nc2cc(OC)c(NC(C)=O)cc2OC)=C(/C)O)cc1,14.2
6,CCN1C(=O)/C(=C\C(=O)c2cccs2)c2cc(Br)ccc21,22.7
7,Cc1nccc(-c2ccc3c(c2)OCO3)n1,-1.48
8,Cc1cccc(OP(N)(N)=O)c1C,16.8
9,COCCN(C(=O)COC(=O)Cc1ccc(Cl)cc1Cl)c1c(N)n(Cc2ccccc2)c(=O)[nH]c1=O,7.1
10,CCc1ccc([C@@H]2C[C@H]3CN(Cc4ccccc4OC)C(=O)[C@]34CCCN24)cc1,-70.7
11,CC(C1CCN(Cc2nc(C3CC3)no2)CC1)N1CCOCC1 (stereo not drawn),-2.69
12,CC(C)c1nc2n[nH]c(N)c2c2c1CSC(C)(C)C2,-16.2
13,COc1ccc(N2CCN(C(=O)CSc3ccc([N+](=O)[O-])cc3)CC2)cc1,-68.4
14,Oc1c(N=Nc2ccccn2)ccc2ccccc12,9.24
15,CCCC(=O)N1CCN(c2nc3ccc(Br)cc3s2)CC1,-71
16,Cc1ccc(/C=C/c2onc(C)c2S(=O)(=O)N2CCC(C(=O)N3CCN(C)CC3)CC2)cc1,-10.9
17,Nc1nc(SCC(=O)Nc2ccc(Cl)c([N+](=O)[O-])c2)n[nH]1,0.58
18,COc1ccc(S(=O)(=O)NCc2cccnc2)cc1NC(=O)c1ccc(C)cc1,-17.6
19,CC1=C(C)NC(=S)SC1,13.9
20,C=CC[C@@H]1Cc2c(Br)ccc(Br)c2[C@@H](CC=C)N1.Cl,17.7
21,O=C(CSC(=S)N1CCOCC1)c1ccccc1,2.75
22,Cc1cccc(C(C)C)c1NC(=O)CN1C(=O)NC(Cc2ccccc2)C1=O (stereo not drawn),-3.13

row,SMILES,"hERG current change (%, negative = inhibition) at 10uM [%]"
1,CCOC(=O)c1ccc(NC(=O)NNS(=O)(=O)c2cc(OC)ccc2OC)cc1,56
2,CC1CCN(S(=O)(=O)c2ccc(C(=O)Nc3ncccc3O)cc2)CC1,-1.81
3,Cl.O=C(c1ccc(Cn2cc(Cl)cn2)o1)N1CCN(Cc2ccc3c(c2)OCO3)CC1,-41.5
4,COC(=O)N/N=C/c1c[nH]c2ccccc12,14.5
5,O=C(c1ccc2nc(Cc3cccc(Cl)c3)oc2c1)N1CCC(CO)CC1,-6.41
6,CCOC(=O)CN1C(=O)N[C@@H](c2cccc(F)c2)C(C(=O)OC)=C1C,-13.4
7,CCCn1c(=O)c2ccccc2n2c(SCC(N)=O)nnc12,4.57
8,Cc1cc(NCc2ccccc2)n2ncnc2n1,19.6
9,C/C(CC(=O)N(C(C)C)C(C)C)=N\NC(=O)COc1ccc(Cl)cc1Cl,-22.6
10,COc1ccccc1C1=NC(c2ccc(C)cc2)N=C1C (stereo not drawn),-32
11,O=C(Nc1cnccn1)c1ccc(Cl)cc1,9.07
12,Cc1ccc(-n2nnnc2SCC(=O)Nc2cccc(NC(=O)c3ccco3)c2)cc1C,-6.49
13,COc1ccccc1NC(=O)Cn1cnc2sc(C(=O)NCc3ccco3)c(C)c2c1=O,13
14,Fc1ccc(-c2ccc(/C=N\n3cnnc3)o2)cc1Cl,-10.8
15,O=C(NC1CCCCC1)C(c1ccc(F)cc1)N(Cc1ccccc1)C(=O)CN1C(=O)c2ccccc2S1(=O)=O (stereo not drawn),8.7
16,O=c1/c(=C\c2ccc3c(c2)OCO3)sc2n1CCCN=2,-6.03
17,COc1cccc(-n2nnnc2S(C)(=O)=O)c1,-13.5
18,Cc1ccccc1N/N=C/c1ccc(N2CCOCC2)cc1,-2.55
19,COc1ccccc1C(=O)N/N=C/C(C)=C/c1ccccc1,-73.8
20,O=[N+]([O-])c1cccc(-c2nc(-c3ccncc3)no2)c1,-21.8
21,COc1ccc(C(=O)NCC2CCCO2)cc1OC (stereo not drawn),19.1
22,CC(C)Cn1c(SCC(=O)NC(=O)Nc2ccc3c(c2)OCCO3)nc2ccccc2c1=O,1.72

row,SMILES,"hERG current change (%, negative = inhibition) at 10uM [%]"
1,COc1ccc(C(OC(=O)c2ccco2)C(=O)NC2CCCC2)cc1OC (stereo not drawn),4.34
2,Cc1ccccc1NC(=O)c1ccc(CN(c2ccccc2)S(=O)(=O)c2ccccc2)cc1,12.3
3,O=C(CCCn1c(=S)[nH]c2cc3c(cc2c1=O)OCO3)NC1CC1,13.3
4,COc1ccc(OCCCC(=O)Nc2nccs2)cc1,7.39
5,COc1ccc(NC(=O)CCN2CCN(S(=O)(=O)c3cc(Cl)ccc3OC)CC2)cc1,-27.7
6,NC1=NC[C@@H](Cc2ccc(O)cc2)N1CCCCC1CCCCC1,-18.6
7,C/C=C/c1ccc(OCCOCCOc2cccc3cccnc23)c(OC)c1,-50.5
8,COc1ccccc1NC(=O)c1c[nH]c2ccccc12,6.06
9,O=C(CSc1ccc2nnc(-c3cccnc3)n2n1)Nc1ccc(F)cc1,-31.5
10,CCOC(=O)c1cccc(NC(=O)CCc2nnc3ccc(N4CCCCC4)nn23)c1,7.86
11,O=C(Nc1ccc(SC(F)F)cc1)c1ccc2nccnc2c1,-17.1
12,COc1ccc(-c2cc(C(=O)Nc3ccccc3SC)no2)cc1OC,0.708
13,O=C1CCC(C(=O)N2CCC(CCO)CC2)CN1Cc1ccc(Cl)cc1 (stereo not drawn),-6.49
14,Cc1ccc(O)c(C2=Nc3ccccc3N=C(c3ccco3)C2)c1,10.4
15,COC(=O)CSc1nnc(-c2ccc(S(=O)(=O)N3CCCC3)cc2)o1,18.6
16,COc1cccc(COc2ccc3c(C)c(Cc4ccccc4)c(=O)oc3c2)c1,6.98
17,Cc1c(C(=O)N/N=C/c2ccccc2)sc(=S)n1C,2.95
18,CCC(C)(C)NC(=O)CN(C(=O)CNS(=O)(=O)c1ccccc1)c1ccc2c(c1)OCCO2,6.92
19,Cc1ccccc1CSCC(=O)c1c(N)n(C)c(=O)n(C)c1=O,-17.5
20,CCN(CC)C(=O)C[n+]1cccc(C(N)=O)c1,9.81
21,CC1CCCCC1NC(=O)CCc1nc2sc3c(c2c(=O)[nH]1)CCCC3 (stereo not drawn),-15.3
